# From article PMC11995724, “Antibiotic target discovery by integrated phenotypic and activity-based profiling of electrophilic fragments” (Cell chemical biology, 2025)
# In all, about 3,200 compounds went through this assay and about 110 (3.4%) showed an effect of 50% or more. The list shows a part of the results.
# Test system: T1, V. cholerae SAD30
# T1 construct: SAD30
# Design: species or system S. aureus MSSA476 (TSB) or V. cholerae SAD30 (LB); 384-well bacterial growth screen at 25 uM, OD600 relative to DMSO control
# Conditions: relative growth, OD600, LB; 25 µM; inhibitor
row,SMILES,% of control remaining
1,"COc1cccc(NC(=O)CN(C)C(=O)CCl)c1 [5-A03, 2-chloro-N-{[(3-methoxyphenyl)carbamoyl]methyl}-N-methylacetamide]",110.119%
2,"C=CC(=O)N1CCC(C(=O)NCc2ccc(-c3n[nH]c(C)n3)cc2)CC1 [3-M21, N-{[4-(5-methyl-1H-1,2,4-triazol-3-yl)phenyl]methyl}-1-(prop-2-enoyl)piperidine-4-carboxamide]",100.382%
3,"C=CC(=O)Nc1cccc(C(O)C(F)(F)F)c1 (stereo not drawn) [1-M16, N-[3-(2,2,2-trifluoro-1-hydroxyethyl)phenyl]prop-2-enamide]",87.4439%
4,"O=C1C=CC(=O)N1c1ccc(F)cc1F [10-F15, 1-(2,4-difluorophenyl)-2,5-dihydro-1H-pyrrole-2,5-dione]",26.4952%
5,"N#CC1=C(N2CCOCC2)SC(c2ccc([N+](=O)[O-])cc2)NC1=O (stereo not drawn) [9-D08, 6-(morpholin-4-yl)-2-(4-nitrophenyl)-4-oxo-3,4-dihydro-2H-1,3-thiazine-5-carbonitrile]",84.3644%
6,"C=CC(=O)NC[C@@H]1C[C@H](F)CN1Cc1ccnn1C [2-E05, N-{[(2S,4S)-4-fluoro-1-[(1-methyl-1H-pyrazol-5-yl)methyl]pyrrolidin-2-yl]methyl}prop-2-enamide]",94.2102%
7,"C=CC(=O)N1CCC(O)(c2ccccc2)CC1 [1-E15, 1-(4-hydroxy-4-phenylpiperidin-1-yl)prop-2-en-1-one]",85.5007%
8,"CC(Cl)C(=O)N1CCCC(CNC(=O)Nc2ccc(F)cc2)C1 (stereo not drawn) [6-J22, 3-{[1-(2-chloropropanoyl)piperidin-3-yl]methyl}-1-(4-fluorophenyl)urea]",101.469%
9,"Cn1cc(C(=O)CCl)nn1 [10-M19, 2-chloro-1-(1-methyl-1H-1,2,3-triazol-4-yl)ethan-1-one]",0%
10,"Cc1nc2n(n1)CCN(C(=O)C(C)Cl)C2 (stereo not drawn) [5-A04, 2-chloro-1-{2-methyl-5H,6H,7H,8H-[1,2,4]triazolo[1,5-a]pyrazin-7-yl}propan-1-one]",108.438%
11,"O=C(CCl)c1c[nH]c2ccncc12 [10-K05, 2-chloro-1-{1H-pyrrolo[3,2-c]pyridin-3-yl}ethan-1-one]",101.305%
12,"COc1ccc([N+](=O)[O-])cc1NC(=O)CCl [4-P17, 2-chloro-N-(2-methoxy-5-nitrophenyl)acetamide]",111.969%
13,"O=C1C=CC(=O)N1c1cc([N+](=O)[O-])ccc1Cl [10-H15, 1-(2-chloro-5-nitrophenyl)-2,5-dihydro-1H-pyrrole-2,5-dione]",28.2096%
14,"C=CC(=O)NC[C@@H]1C[C@H]1C1CCCCC1 [1-O19, N-{[(1R,2S)-2-cyclohexylcyclopropyl]methyl}prop-2-enamide]",71.5994%
15,"Cc1cccc(NC(=O)C(C#N)=Cc2ccc(F)c(F)c2)c1 [8-I16, 2-cyano-3-(3,4-difluorophenyl)-N-(3-methylphenyl)prop-2-enamide]",63.4262%
16,"C=CC(=O)Nc1ccc(C(F)C(F)(F)F)cc1 (stereo not drawn) [1-O20, N-[4-(1,2,2,2-tetrafluoroethyl)phenyl]prop-2-enamide]",84.9028%
17,"COc1ccc(NC(=O)C(C)Cl)c([N+](=O)[O-])c1 (stereo not drawn) [6-B08, 2-chloro-N-(4-methoxy-2-nitrophenyl)propanamide]",90.3972%
18,"Cc1ccc(C)c(C=C(C#N)C(=O)NC(C)C)c1 [9-O22, 2-cyano-3-(2,5-dimethylphenyl)-N-(propan-2-yl)prop-2-enamide]",95.9211%
19,"C=CC(=O)NCCN1CCOCC1C (stereo not drawn) [2-I05, N-[2-(3-methylmorpholin-4-yl)ethyl]prop-2-enamide]",90.3503%
20,"C=CC(=O)NCC(C)Cn1nccc1C (stereo not drawn) [1-H14, N-[2-methyl-3-(5-methyl-1H-pyrazol-1-yl)propyl]prop-2-enamide]",80.2257%
21,"CC(Cl)C(=O)N1CCn2c(nn(CC(=O)N(C)C)c2=O)C1 (stereo not drawn) [7-K17, 2-[7-(2-chloropropanoyl)-3-oxo-2H,3H,5H,6H,7H,8H-[1,2,4]triazolo[4,3-a]pyrazin-2-yl]-N,N-dimethylacetamide]",78.2422%
22,"Cc1c(Cl)cccc1N1C(=O)C=CC1=O [10-B17, 1-(3-chloro-2-methylphenyl)-2,5-dihydro-1H-pyrrole-2,5-dione]",23.3781%
23,"C=CC(=O)N1CCN(Cc2cc(C)no2)CC1 [1-B18, 1-{4-[(3-methyl-1,2-oxazol-5-yl)methyl]piperazin-1-yl}prop-2-en-1-one]",110.402%

row,SMILES,% of control remaining
1,"CC(Cl)C(=O)NC(C)c1ccc(C(F)(F)F)nc1Cl (stereo not drawn) [7-G09, 2-chloro-N-{1-[2-chloro-6-(trifluoromethyl)pyridin-3-yl]ethyl}propanamide]",79.0352%
2,"COc1ccc(C=C(C#N)C(=O)Nc2ccc(C)cc2)cc1 [9-A19, 2-cyano-3-(4-methoxyphenyl)-N-(4-methylphenyl)prop-2-enamide]",88.3073%
3,"COc1ccccc1NC(=O)c1ccc(NC(=O)CCl)cc1 [4-O17, 4-(2-chloroacetamido)-N-(2-methoxyphenyl)benzamide]",104.205%
4,"CC(NC(=O)c1ccccc1NC(=O)CCl)c1ccccc1 (stereo not drawn) [4-B07, 2-(2-chloroacetamido)-N-(1-phenylethyl)benzamide]",105.758%
5,"C=CC(=O)N(Cc1cnn(C(C)C)c1)c1ccc2nc(C)oc2c1 [2-C13, N-(2-methyl-1,3-benzoxazol-6-yl)-N-{[1-(propan-2-yl)-1H-pyrazol-4-yl]methyl}prop-2-enamide]",92.8206%
6,"CCn1cc(S(=O)(=O)N2CCSSCC2)cn1 [10-N19, 5-[(1-ethyl-1H-pyrazol-4-yl)sulfonyl]-1,2,5-dithiazepane]",96.7855%
7,"CC1=C(c2ccco2)CN(C(=O)CCl)CC1 [5-H05, 2-chloro-1-[5-(furan-2-yl)-4-methyl-1,2,3,6-tetrahydropyridin-1-yl]ethan-1-one]",103.898%
8,"CC(NC(=O)CCl)c1ccc2c(c1)CCCC2 (stereo not drawn) [4-B03, 2-chloro-N-[1-(5,6,7,8-tetrahydronaphthalen-2-yl)ethyl]acetamide]",113.867%
9,"C=CC(=O)N1CCCCC1C1CCCO1 (stereo not drawn) [2-L21, 1-[2-(oxolan-2-yl)piperidin-1-yl]prop-2-en-1-one]",95.7541%
10,"CCc1ccc(NC(=O)C(C)Cl)cc1 (stereo not drawn) [4-L15, 2-chloro-N-(4-ethylphenyl)propanamide]",96.9592%
11,"CC(Cl)C(=O)N1CCN(C(=O)C(F)(F)F)C2(CCCCC2)C1 (stereo not drawn) [7-K06, 2-chloro-1-[1-(2,2,2-trifluoroacetyl)-1,4-diazaspiro[5.5]undecan-4-yl]propan-1-one]",75.3345%
12,"CCc1nocc1CN(C)C(=O)C(C)Cl (stereo not drawn) [7-M06, 2-chloro-N-[(3-ethyl-1,2-oxazol-4-yl)methyl]-N-methylpropanamide]",82.6037%
13,"C=CC(=O)Nc1ccc(C(=O)NCC2CSCCS2)cc1 (stereo not drawn) [2-K21, N-[(1,4-dithian-2-yl)methyl]-4-(prop-2-enamido)benzamide]",95.2909%
14,"Cc1nc([C@H]2CCCN2C(=O)C(C)Cl)cs1 (stereo partly drawn) [7-O04, 2-chloro-1-[(2R)-2-(2-methyl-1,3-thiazol-4-yl)pyrrolidin-1-yl]propan-1-one]",87.7581%
15,"C=CC(=O)NC1CCCN(Cc2ccccc2)C1=O (stereo not drawn) [2-L13, N-(1-benzyl-2-oxopiperidin-3-yl)prop-2-enamide]",88.4975%
16,"C=CC(=O)Nc1cnoc1C(C)C [3-L10, N-[5-(propan-2-yl)-1,2-oxazol-4-yl]prop-2-enamide]",94.3834%
17,"C=CC(=O)N1CCC(c2nnc3n2CCCC3)CC1 [2-J21, 1-(4-{5H,6H,7H,8H-[1,2,4]triazolo[4,3-a]pyridin-3-yl}piperidin-1-yl)prop-2-en-1-one]",102.702%
18,"Cc1cc(C)c(-c2cc(NC(=O)CCl)n(-c3ccccc3)n2)cc1C [6-A10, 2-chloro-N-[1-phenyl-3-(2,4,5-trimethylphenyl)-1H-pyrazol-5-yl]acetamide]",102.986%
19,"C=CC(=O)N(Cc1cc2cccc(OC)c2o1)[C@@H]1C[C@H]2CC[C@@H]1O2 (racemic) [1-J13, rac-N-[(7-methoxy-1-benzofuran-2-yl)methyl]-N-[(1R,2S,4S)-7-oxabicyclo[2.2.1]heptan-2-yl]prop-2-enamide]",76.6816%
20,"Cc1nn(-c2ccccc2)c(C)c1CNC(=O)CCl [6-I08, 2-chloro-N-[(3,5-dimethyl-1-phenyl-1H-pyrazol-4-yl)methyl]acetamide]",96.4641%
21,"CC(Cl)C(=O)NC(C)c1ncn(C)n1 (stereo not drawn) [6-P13, 2-chloro-N-[1-(1-methyl-1H-1,2,4-triazol-3-yl)ethyl]propanamide]",99.0426%
22,"C=CC(=O)N[C@H](C)c1ccccc1OC(C)C [3-N16, N-[(1R)-1-[2-(propan-2-yloxy)phenyl]ethyl]prop-2-enamide]",95.9713%
